The whole screen tested about 39,000 compounds, of which about 220 (0.56%) showed activity. This is one part of the list.
The compounds below were run on Escherichia coli K-12 BW25113 (assay: relative growth (OD600 normalised to plate interquartile mean) (fraction); higher = less growth inhibition, active = 0.2 or less). Settings: 50 µM; LB; incubation time: overnight (16-24 h).
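Also: static incubation at 37 °C against the wild-type strain, values averaged over two biological replicates.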

Structure (SMILES) | relative growth
Cc1cc(=O)[n+]2cccc(O)c2[nH]1 | inactive: 0.959
CO[C@@H](CN(C)C(=O)Nc1ccc(C(F)(F)F)cc1)[C@H](C)CN(Cc1ccccc1Cl)[C@H](C)CO | inactive: 1.01
CCN1CCN(C(=O)NC(C(=O)NC2C(=O)N3C2SC(C)(C)C3C(=O)[O-])c2ccccc2)C(=O)C1=O.[Na+] (stereo not drawn) | active: 0.0465
Cc1ccc(S(=O)(=O)N(C)C[C@@H]2OCCCC[C@@H](C)Oc3ccc(NS(C)(=O)=O)cc3C(=O)N([C@H](C)CO)C[C@H]2C)cc1 | inactive: 0.999
COC(=O)c1c(CC[C@@H](CO)NC(=O)N[C@@H](Cc2ccccc2)Cn2cc(-c3cncn3C)nn2)oc(C(C)=O)c1C(=O)OC | inactive: 1.04
CN1C(=O)c2cc(NC(=O)c3cnccn3)ccc2OC[C@H]2O[C@H](CC(=O)N[C@H]3CCN(Cc4ccccc4)C3)CC[C@@H]21 | inactive: 0.976
C[C@H]1COC(=O)[C@@H](Cc2ccc(F)cc2)CC=CC[C@@H](CC(=O)N[C@H](CO)Cc2ccccc2)C(=O)N1 | inactive: 0.982
C[C@H]1CN([C@@H](C)CO)C(=O)c2cc(Br)cnc2O[C@H]1CN(C)Cc1ccccc1C(=O)O | inactive: 1.01
COCC(=O)Nc1ccc2c(c1)C(=O)N(C)[C@H]1CC[C@@H](CC(=O)N3CCc4ccccc4C3)O[C@@H]1CO2 | inactive: 1
COc1ccc(CN(C)C[C@H]2OCCCC[C@@H](C)Oc3ccc(NC(=O)Nc4ccc5c(c4)OCO5)cc3C(=O)N([C@@H](C)CO)C[C@@H]2C)cc1 | inactive: 0.974
CC(C)(C)[C@H]1COC(=O)[C@@H](NC(=O)OCC2c3ccccc3-c3ccccc32)CC=CC[C@H](CC(=O)NCCO)C(=O)N1 | inactive: 1.02
C[C@@H]1CN([C@H](C)CO)C(=O)c2cc(NS(C)(=O)=O)ccc2O[C@@H]1CN(C)S(=O)(=O)c1cccs1 | inactive: 1.03
O=C(C[C@H]1CC[C@@H]2[C@H](COC[C@H](O)CN2C(=O)c2ccncc2)O1)NCc1ccc(-c2ccccc2)cc1 | inactive: 1.02
C[C@@H]1CN([C@H](C)CO)C(=O)c2cc(NS(=O)(=O)c3ccccc3)ccc2O[C@@H](C)CCCCO[C@@H]1CN(C)S(=O)(=O)c1cn(C)cn1 | inactive: 1.05
CC(C)(C)OC(=O)N1CC(C(=O)O)C1 | inactive: 0.971
Cc1ccc(S(=O)(=O)N2C[C@@H](O)COC[C@H]3O[C@H](CC(=O)NCc4cccc(C(F)(F)F)c4)CC[C@@H]32)cc1 | inactive: 1.01
C[C@@H]1CN([C@H](C)CO)C(=O)c2cc(NS(C)(=O)=O)ccc2O[C@@H](C)CCCCO[C@H]1CN(C)C(=O)Nc1ccc(C(F)(F)F)cc1 | inactive: 0.887
C[C@@H]1CN([C@@H](C)CO)C(=O)c2cc(NS(C)(=O)=O)ccc2O[C@@H]1CN(C)Cc1ccc(C(F)(F)F)cc1 | inactive: 0.996
C#CC[C@H](c1nc2cc(Cl)ccc2c(=O)n1Nc1ccccc1)N(CCCN)C(=O)c1cccc(Cl)c1F | inactive: 0.987
C[C@H](CO)N1C[C@H](C)[C@H](CN(C)C(=O)CCCN(C)C)OCCCC[C@H](C)Oc2ccc(NC(=O)Nc3ccc(C(F)(F)F)cc3)cc2C1=O | inactive: 0.964

Structure (SMILES) | relative growth
COc1ccc(S(=O)(=O)N(C)C[C@@H]2Oc3cc(C4=CCCC4)ccc3S(=O)(=O)N([C@H](C)CO)C[C@H]2C)cc1 | inactive: 0.999
CC(C)NC(=O)Nc1ccc2c(c1)C(=O)N([C@@H](C)CO)C[C@@H](C)[C@H](CN(C)S(=O)(=O)c1cn(C)cn1)OCCCC[C@@H](C)O2 | inactive: 0.98
COc1ccc2c3c(n(c2c1)C)[C@H](CO)N(C[C@]13CCN(CC1)C(=O)Nc1cccc(c1)F)S(=O)(=O)C | inactive: 0.983
CC(C)CC#Cc1ccc2c(c1)O[C@H](CN(C)Cc1cncnc1)[C@@H](C)CN([C@H](C)CO)S2(=O)=O | inactive: 0.994
C[C@H](CO)N1C[C@H](C)[C@@H](CN(C)S(=O)(=O)c2cccs2)OCCCC[C@H](C)Oc2ccc(NC(=O)NC3CCCCC3)cc2C1=O | inactive: 1.03
C[C@@H]1CN([C@H](C)CO)C(=O)c2cccc(NS(C)(=O)=O)c2O[C@H]1CN(C)S(=O)(=O)c1ccc(F)cc1 | inactive: 1.01
COc1ccc(S(=O)(=O)N(C)C[C@H]2Oc3ccc(NS(C)(=O)=O)cc3CC(=O)N([C@@H](C)CO)C[C@@H]2C)cc1 | inactive: 0.916
C=CCNC(=O)[C@H]1[C@@H]2C(=O)O[C@@H](c3ccccc3)[C@@H](c3ccccc3)N2[C@@H](c2ccc(O)cc2)[C@]12C(=O)N(C(=O)OCCOC)c1ccc(C#CC3=CCCCC3)cc12 | inactive: 1.06
C[C@@H]1CN([C@@H](C)CO)C(=O)c2cc(NC(=O)CCCN(C)C)ccc2O[C@H]1CN(C)S(=O)(=O)c1cn(C)cn1 | inactive: 1
C[C@H]1CCCCO[C@H](CN(C)Cc2ccc(C(=O)O)cc2)[C@@H](C)CN([C@@H](C)CO)C(=O)c2cc(NC(=O)Nc3ccccc3)ccc2O1 | inactive: 1
C[C@H](CO)N1C[C@H](C)[C@@H](CN(C)Cc2ccc3c(c2)OCCN3C)OCc2cnnn2CCCC1=O | inactive: 0.994
C[C@@H]1CCCCO[C@H](CN(C)C(=O)c2ccccc2)[C@@H](C)CN([C@H](C)CO)C(=O)c2cc(NC(=O)Cc3ccccc3)ccc2O1 | inactive: 0.993
C[C@@H]1CN([C@@H](C)CO)C(=O)c2cc(NC(=O)Nc3ccccc3)ccc2O[C@@H](C)CCCCO[C@@H]1CN(C)Cc1ccncc1 | inactive: 0.965
C[C@@H]1CN([C@H](C)CO)C(=O)c2cccc(NC(=O)c3ccncc3)c2O[C@@H]1CN(C)S(=O)(=O)c1ccccc1 | inactive: 0.979
O=C(C[C@H]1CC[C@@H]2[C@H](COC[C@@H](O)CN2C(=O)Nc2ccc(Cl)c(Cl)c2)O1)NCc1ccc(Cl)c(Cl)c1 | inactive: 0.971
O=C(OC[C@H]1O[C@@H](OC(=O)c2cc(O)c(O)c(O)c2)[C@H](OC(=O)c2cc(O)c(O)c(O)c2)[C@@H](OC(=O)c2cc(O)c(O)c(O)c2)[C@@H]1OC(=O)c1cc(O)c(O)c(O)c1)c1cc(O)c(O)c(O)c1 | inactive: 0.537
Cc1ccc(S(=O)(=O)Nc2ccc3c(c2)C(=O)N([C@@H](C)CO)C[C@H](C)[C@@H](CN(C)C(=O)CCC(F)(F)F)OCCCC[C@H](C)O3)cc1 | inactive: 0.979
C[C@H]1CCCCO[C@H](CN(C)CC2CCCCC2)[C@@H](C)CN([C@@H](C)CO)C(=O)c2cc(NC(=O)Cc3ccccc3)ccc2O1 | inactive: 0.995
COC(=O)CCCCCCC(=O)N/N=C/[C@H](O)[C@@H](O)[C@H](O)CO | inactive: 1
O=C(C[C@@H]1C=C[C@H](NC(=O)CN2CCOCC2)[C@H](CO)O1)NC1CCCCC1 | inactive: 1.02

Structure (SMILES) | relative growth
CN(C)CC#Cc1ccc([C@H]2[C@@H](CO)N3C(=O)CN(C(=O)CN(C)C)C[C@@H]23)cc1 | inactive: 1.01
CCS(=O)(=O)NCC[C@H]1CC[C@H](NS(=O)(=O)c2ccccc2C)[C@H](CO)O1 | inactive: 1.01
Cc1noc(C)c1S(=O)(=O)N(C)C[C@@H]1Oc2ccc(NS(=O)(=O)c3cccs3)cc2CC(=O)N([C@@H](C)CO)C[C@H]1C | inactive: 1.01
C=CCCCCCCCCC(=O)[O-].C=CCCCCCCCCC(=O)[O-].[Zn+2] | inactive: 0.885
OC[C@@H]1CCCN1 | inactive: 1.01
C[C@@H]1CN([C@H](C)CO)C(=O)c2cc(NC(=O)CCC(F)(F)F)ccc2O[C@@H]1CN(C)Cc1ccc(Cl)c(Cl)c1 | inactive: 0.964
C[C@@H]1CN([C@H](C)CO)C(=O)CCCn2cc(nn2)CO[C@@H]1CN(C)S(=O)(=O)c1ccc2c(c1)OCCCO2 | inactive: 0.971
CN1C(=O)c2cc(NC(=O)c3cnccn3)ccc2OC[C@@H]2O[C@H](CC(=O)N[C@@H]3CCN(Cc4ccccc4)C3)CC[C@H]21 | inactive: 1.02
C[C@@H]1CCCCO[C@H](CN(C)S(C)(=O)=O)[C@@H](C)CN([C@H](C)CO)C(=O)c2cc(NC(=O)CCCN(C)C)ccc2O1 | inactive: 0.98
COC(=O)c1c(CC[C@@H](CO)NC(=O)N[C@@H](Cc2ccccc2)Cn2cc(-c3ccccn3)nn2)oc(C(=O)N2CCOCC2)c1C(=O)OC | inactive: 0.996
C[C@H]1CN([C@@H](C)CO)C(=O)c2cc(C#CCN(C)C)cnc2O[C@H]1CN(C)S(=O)(=O)c1cn(C)cn1 | inactive: 0.984
COc1ccc(S(=O)(=O)Nc2ccc3c(c2)C(=O)N([C@@H](C)CO)C[C@H](C)[C@@H](CN(C)C(=O)Nc2ccccc2)OCCCC[C@@H](C)O3)cc1 | inactive: 0.999
C[C@@H]1CN([C@@H](C)CO)C(=O)c2cc(NS(=O)(=O)c3cn(C)cn3)ccc2O[C@@H]1CN(C)Cc1ccc2c(c1)OCO2 | inactive: 0.977
Cc1ccc(N(CC2=NCCN2)c2cccc(O)c2)cc1.Cl | inactive: 1.03
C[C@@H]1CN([C@@H](C)CO)C(=O)Cc2cc(NS(C)(=O)=O)ccc2O[C@H]1CN(C)S(=O)(=O)c1cn(C)cn1 | inactive: 1
CCOC(=O)N1CCC(NS(=O)(=O)c2cccc(S(=O)(=O)[C@H]3CCS(=O)(=O)C3)c2)CC1 | inactive: 0.991
C[C@H](CO)N1C[C@H](C)[C@@H](CN(C)C(=O)Nc2ccc(C(F)(F)F)cc2)Oc2ccc(NC(=O)Nc3cccc4ccccc34)cc2C1=O | inactive: 1.01
O=C(C[C@@H]1CC[C@@H](NC(=O)c2ccc(F)cc2)[C@H](CO)O1)NCc1ccncn1 | inactive: 1.02

Reference: the supplement of paper PMC9446081
